Experimental data as given in the supplement of paper PMC11417369.
The other results are listed elsewhere or left out.

system: PfSIP2 AP2 domain 1 (GST-tagged); experiment: gcPBM binding intensity (ln(normalized median fluorescence intensity)); higher = stronger DNA binding
In short: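 GST-fused DNA-binding domains of P. falciparum, expressed in E. coli, were applied at about 25 μg on average for 1 h to an Agilent 4 × 180k array of primer-extended double-stranded 36-bp intergenic genomic probes and negative controls. Binding intensity is the highest Masliner-normalised natural-log median intensity across replicate spots of either probe orientation, measured with Alexa488 anti-GST antibody and a 488 nm scan.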

Sequence	gcPBM binding intensity (ln)
AGTAAACGATGATGTTGTACAAAAAGGATAATTTAA [XGTACX_site6698]	7
TTTTTATTTTTTATGTAATTTAAATAATTATTCAAA [CACACA_negctrl_site1549]	6.77
CAATACTATTATTATAGTACGTATAAAATTATATAT [XGTACX_site4950]	7.1
TACAAAAAAGAAGATATTCAAACAAAAACAAAAAAA [CACACA_negctrl_site1126]	6.8
TATATATATATGCTACGTACATATATATTATATATA [XGTACX_site7894]	8.92
TATCATAATAGACACAGTACATATATGTCTTAAATT [XGTACX_site8775]	6.95
GTATTCTTCTCTCCGTGTACATATATATGTATATAT [XGTACX_site803]	7.7
AAACCGTGGGAGCACACACACACACGCGCACATATA [CACACA_site6288]	7.07
GTAACCCACCAAAATGCACACATTAAAAAAAAAAAA [CACACA_site1046]	8.06
TGTTTCTAAAAAAAAGGTACACATATATATAATATA [XGTACX_site3217]	7.1
ATAGTTTATACAAATAGTACGCACAAAAAAAAATAA [XGTACX_site6727]	7.24
AAAAAATTTCAAATGACATAATGTAATTTCCCTTTT [GTGCAC_negctrl_site673]	6.53
AATACCGGAAAGCAAACACACATTTGAAAACCATAA [CACACA_site7761]	6.95
TATATATTATATATATGTACATATTTATTTTATTTT [XGTACX_site6989]	7.28
TTTATCAAAATAAATGCACACAAATTGCACATATCT [CACACA_site8281]	9.03
TATATATAAACAAAATGTACATATTTGAGATACCCT [XGTACX_site2195]	6.99
ATGAACATTTATAAATGTACTCACATATATATATTT [XGTACX_site6692]	7.02
TTTATATTTATCCAAAGTACTTTTTAAAAACATACC [XGTACX_site4518]	7.36
AGATATATATTTTATTGTACACATTAAAGTATAAAA [XGTACX_site7194]	6.99

Sequence	gcPBM binding intensity (ln)
AACATTTTTAGATTATATTATTAAATAAGTAACTGC [XGTACX_negctrl_site326]	6.81
AACACTTTAATTTATGCACACATATGGAACAACAGC [CACACA_site8241]	7.92
AAGTTTTTTATTTTTTGTACATAAAAAATAATAATT [XGTACX_site1755]	7.02
TATGTATTTATATATACACACTTCTGTGATACGAAA [CACACA_site5128]	6.87
TTTTTGTTTTTTTTTTGTACATATATATAAAAAATA [XGTACX_site1214]	7.14
TTTTTTTTAATATTTTACATTGTCTGTTAACAAATA [CACACA_negctrl_site599]	6.88
GGGAGGATAGTTCACAGTACCCAGTAACTCTACGGA [XGTACX_site2558]	7.12
ATTTATTGACTATTTACACACATATTTATTAGAATA [CACACA_site6863]	7.11
ATGATACATAAAGAATATAAAACATGAAATATAATA [CACACA_negctrl_site1461]	6.8
AACTGAGAAACCGAAGTGCAATATGTATATATACAT	7.56
ATATATAATATATATGCATGTGACATTAATAATATA [TGCATGCA_site880]	7.15
TAATTTAAAAATATAAATGTTTCACTTATATATTTT [TGCATGCA_negctrl_site399]	6.62
ATATGAAAGGTGTACACACGCACACCCAAAAAAATA [CACACA_site2911]	7.93
CCACACTTAAAATACACACACACCAAAAAAAAAAAA [CACACA_site2709]	7.24
TACACCCATGGACACACACACACGCATAAAAAAAAA [CACACA_site4933]	7.4
AAAAAAAAAAAAAAAACACACATTTGAAAGAAAGAA [CACACA_site3339]	7.78
ATTTTTATTTTCTTTACACACCACATAATTTTTTTT [CACACA_site6092]	7.31
GCCACACTTTTCTGCACACATAAAAAATATATAAAT [CACACA_site578]	8.53
CATAAGAGGAACTTTTGTACTTATATGTATATAGTA [XGTACX_site5836]	6.83

Sequence	gcPBM binding intensity (ln)
CTTTTATGAAACAGTGCACACATAAAAATATATACA [CACACA_site8981]	11.3
TATATCGTTATATAAACACACAATATGTTTTTTATA [CACACA_site7730]	6.86
TTAACATAGATATATACACACCAATGATGGCATTTA [CACACA_site6840]	6.71
TATATATATATATATATACACACTATATAATTCAAA [CACACA_site1023]	9.03
TTTTTTTTTTTTTAGAGTACACACTTTTTTACATTT [XGTACX_site8159]	7.19
CATAAAATATAAAACACACACACATATATTTATATA [CACACA_site6247]	6.95
AAATAAAAGTTCACCTGTACACACATATATATATGT [XGTACX_site3513]	7.13
ATATATAATACTACAGTGCAATATATTATATTTGTT	7.76
TTCCTCTTAAAATATACACACTGATTTAAGAAAAAA [CACACA_site5770]	7.21
GCAAATCATGCTATGGTGCATATGTAAGATGAGCAT	10.6
TTGTGATTATTATATTGTACAATAAGTATTAAAGAA [XGTACX_site2753]	7.26
ATACTAAATATAAATTGTACTTTATTTATATTGAGA [XGTACX_site8699]	7.1
AGAATACATCTATGAACACACAGAGTTTTAAAAAAT [CACACA_site5514]	6.76
TTTTTCATTTAACAGAAGGGAGATAAAAAAAAAAAA [TGCATGCA_negctrl_site261]	7.12
ATATTATTTTAAAGTACACACATATATTGATATATA [CACACA_site7153]	7.24
AATAATTATAAAAAATGTACAAAAAAAAAAAAAAAA [XGTACX_site3681]	7.13
GTATGTATGTATGTATGTACGTATGTATGTATATAT [XGTACX_site3369]	8.32
AAAATAATATTTAATACACACATAATTATAATATAA [CACACA_site782]	6.9
ATTTTTAATTGAATCACACATTTCCTTTCTTTTGTG [CACACA_site4438]	6.97
